Source: article PMC6212790
Some of the results follow. At the low end of the ranking the order means little.

Molecular target: T1, GST-Rok (full length) (UniProt O34857)
T1 sequence: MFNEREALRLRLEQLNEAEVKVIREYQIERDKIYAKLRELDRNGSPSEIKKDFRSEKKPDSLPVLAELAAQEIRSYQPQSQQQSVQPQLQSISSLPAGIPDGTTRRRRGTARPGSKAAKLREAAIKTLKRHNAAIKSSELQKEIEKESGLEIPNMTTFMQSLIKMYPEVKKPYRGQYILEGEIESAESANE
Assay: protein binding microarray;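 note: rank score from −0.5 (least bound) to 0.5 (best bound)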
Settings: Rok is a gene silencer of Bacillus subtilis; high values mean tight binding; most listed sequences are background and not binding sites; double strand, one strand shown

| Sequence | binding signal |
| --- | --- |
| CTGCAAGA | -0.231 E-score |
| GCATTCTA | 0.227 E-score |
| CCGACAGG | -0.267 E-score |
| CAGTCATA | 0.0664 E-score |
| CGTGTTCC | -0.208 E-score |
| CACCCGCA | -0.165 E-score |
| ATTAAATC | 0.0773 E-score |
| GCTACTAA | 0.199 E-score |
| AAAGAGTC | -0.095 E-score |
| CAATCGTA | 0.113 E-score |
| CCCACCCG | -0.284 E-score |
| ATTGAAGC | 0.0102 E-score |
| ACATGGCC | -0.0777 E-score |
| CCGGCACC | -0.332 E-score |
| GACAACTA | 0.333 E-score |
| CCAGTAGA | 0.166 E-score |
| CCCTGCCC | -0.447 E-score |
| AACTGCTG | -0.0396 E-score |
| TCTATCAA | 0.212 E-score |
| AGTGCTGA | -0.24 E-score |
| CCAATGGC | -0.174 E-score |
| AGAACGAG | -0.16 E-score |

| Sequence | binding signal |
| --- | --- |
| CGCTGTTA | -0.0621 E-score |
| GGCTTTGA | -0.332 E-score |
| ATCTATCA | 0.409 E-score |
| AGCTAGGC | -0.143 E-score |
| ATCCTCTG | 0.0742 E-score |
| AGAACCCG | -0.253 E-score |
| CGCTAGAG | -0.0128 E-score |
| CAGCTTCA | -0.268 E-score |
| CCGCGCTA | -0.00372 E-score |
| AAAACTGG | 0.00884 E-score |
| AAGCAGGC | -0.339 E-score |
| GAGATACA | 0.193 E-score |
| AACCAGTG | -0.018 E-score |
| GATCATGC | -0.11 E-score |
| ACCCTGGG | -0.232 E-score |
| AATAGTCG | 0.0668 E-score |
| AATACATC | 0.209 E-score |
| GCCGATCA | 0.0608 E-score |
| CTATGACC | -0.105 E-score |
| CCTGGGAA | -0.171 E-score |
| AGCAGATG | 0.252 E-score |
| CACTGTAC | 0.0796 E-score |

| Sequence | binding signal |
| --- | --- |
| ACAAGACT | -0.0271 E-score |
| AGGCCAGC | -0.341 E-score |
| CAGGCCTC | -0.288 E-score |
| CAAACCAG | -0.185 E-score |
| CCTTACTC | -0.231 E-score |
| ATAAACAG | 0.177 E-score |
| CGAAAGCA | -0.153 E-score |
| TAGTTGCA | 0.318 E-score |
| AGCAGCGG | -0.175 E-score |
| GTTCCCGA | -0.27 E-score |
| GGTCCACA | -0.132 E-score |
| AAGGGTCC | -0.12 E-score |
| ACGCTTAA | -0.0688 E-score |
| CAGCCGCG | -0.283 E-score |
| CTGACACA | -0.0347 E-score |
| ATTCGAGA | 0.15 E-score |
| AGATCCAG | -0.052 E-score |
| CACTGACA | -0.161 E-score |
| AACCGTAA | 0.0898 E-score |
| GATAGTTA | 0.391 E-score |
| ACTAGTGA | 0.172 E-score |
| CTTACAAC | 0.14 E-score |

| Sequence | binding signal |
| --- | --- |
| CCGGTTTC | -0.0901 E-score |
| CTATGCGC | -0.124 E-score |
| CTCGAACA | 0.101 E-score |
| CATCAGAG | -0.0709 E-score |
| CGCATAAA | 0.0624 E-score |
| GAGTAATA | 0.318 E-score |
| ACGTTTAA | -0.112 E-score |
| ATCTTGAA | 0.0196 E-score |
| ACTCAATA | 0.309 E-score |
| TCTACTAA | 0.353 E-score |
| TCTAGCAA | 0.184 E-score |
| ATTGTAGA | 0.316 E-score |
| ACTGTCAC | 0.011 E-score |
| CCAATAGG | -0.237 E-score |
| ATTCGATC | 0.232 E-score |
| GAAATCCA | 0.031 E-score |
| AGGAACCC | -0.114 E-score |
| AGCTCCTA | 0.00519 E-score |
| GAGCAAGA | -0.164 E-score |
| TCTATTAA | 0.215 E-score |
| CGGGCGGC | -0.388 E-score |
| AGAACTCC | -0.133 E-score |

| Sequence | binding signal |
| --- | --- |
| ATAGAAGC | 0.307 E-score |
| ACGAAATA | 0.212 E-score |
| AAGTTTTG | 0.00498 E-score |
| TATGTCAA | 0.234 E-score |
| AACATACC | 0.244 E-score |
| AGTAAAGA | 0.132 E-score |
| CCATTTAG | 0.0659 E-score |
| AACCCAGA | -0.0229 E-score |
| TACCGCTA | 0.209 E-score |
| TCAGCTGA | -0.0348 E-score |
| ATCGAATC | 0.231 E-score |
| TAAATAGA | 0.228 E-score |
| CATTGGTC | -0.0292 E-score |
| CAGTCGCA | -0.0605 E-score |
| CCCGTGCC | -0.332 E-score |
| GACTCCTA | 0.0242 E-score |
| TAGATAGA | 0.318 E-score |
| CCAGCCAG | -0.269 E-score |
| ATATTGCA | 0.204 E-score |
| ACAGATTG | 0.104 E-score |
| GCATTCGC | -0.0919 E-score |
| GGCTCGTA | -0.244 E-score |
